Measured values reported in patent US5242908A, “Use of benzylphosphonic acid derivatives for the treatment of diseases caused by viruses” (priority 1990, dated 1993).

Experiments:
[1] = test system: Friend leukemia virus (FLV); type: in vivo, NMRI mice; details: once per day, 10 days
[2] = test system: Influenza A2; details: twice daily for 2.5 days; for Survivors: groups of 5 mice

Compound	Average survival time ([2]; po 0.25 mg/kg)	Survivors ([2]; po 0.25 mg/kg)	Average survival time ([2]; po 2.5 mg/kg)	Survivors ([2]; po 2.5 mg/kg)	Survivors ([2]; po 25 mg/kg)	Average survival time ([2]; po 25 mg/kg)	other results
COP(=O)(Cc1ccccc1C)OC [A, dimethyl 2-methylbenzylphosphonate]	6.0 days	3	7.0 days	4	5	–	FLV Survival rate ([1]; ip 50 mg/kg): 100%; Relative spleen weight ([1]; ip 50 mg/kg): 7.22%; FLV Survival rate ([1]; po 15.0 mg/kg): 100%; Relative spleen weight ([1]; po 15.0 mg/kg): 6.93%; FLV Survival rate ([1]; po 73.5 mg/kg): 100%; Relative spleen weight ([1]; po 73.5 mg/kg): 6.15%; Average survival time ([2]; sc 0.25 mg/kg): 7.0 days; Survivors ([2]; sc 0.25 mg/kg): 2; Average survival time ([2]; sc 2.5 mg/kg): 7.0 days; Survivors ([2]; sc 2.5 mg/kg): 4; Average survival time ([2]; sc 25 mg/kg): 7.0 days; Survivors ([2]; sc 25 mg/kg): 3
CCOP(=O)(Cc1ccc(C(F)(F)F)cc1)OCC [AB, Diethyl 4-trifluoromethylbenzylphosphate]	9.0 days	4	6.0 days	4	1	7.5 days	–
CCOP(=O)(Cc1ccccc1CP(=O)(OCC)OCC)OCC [AC, 1,2-Phenylene-bis(diethyl methylphosphonate)]	–	–	–	–	–	–	Average survival time ([2]; sc 0.25 mg/kg): 6.3 days; Survivors ([2]; sc 0.25 mg/kg): 2; Average survival time ([2]; sc 2.5 mg/kg): 7.0 days; Survivors ([2]; sc 2.5 mg/kg): 1; Average survival time ([2]; sc 25 mg/kg): 6.0 days; Survivors ([2]; sc 25 mg/kg): 4
CCOP(=O)(Cc1cccc(CP(=O)(OCC)OCC)c1)OCC [AD, 1,3-Phenylene-bis(diethyl methylphosphonate)]	–	–	–	–	–	–	Average survival time ([2]; sc 0.25 mg/kg): 7.0 days; Survivors ([2]; sc 0.25 mg/kg): 2; Average survival time ([2]; sc 2.5 mg/kg): 6.5 days; Survivors ([2]; sc 2.5 mg/kg): 3; Average survival time ([2]; sc 25 mg/kg): 7.0 days; Survivors ([2]; sc 25 mg/kg): 4
CCOP(=O)(Cc1ccccc1C(=O)O)OCC [AE, Diethyl 2-carboxybenzylphosphonate]	7.0 days	2	7.0 days	4	5	–	–
O=C(O)c1ccccc1CP(=O)(O)O [AF, 2-Carboxybenzylphosphonic acid]	10.0 days	4	–	5	0	7.2 days	–
CCOP(=O)(Cc1ccc(C#N)cc1)OCC [AL, Diethyl 4-cyanobenzylphosphonate]	8.0 days	0	7.3 days	2	5	–	–
Cc1cn([C@H]2C[C@H](N=[N+]=[N-])[C@@H](CO)O2)c(=O)[nH]c1=O [AZT, azidothymidine, reference compound]	–	–	–	–	–	–	FLV Survival rate ([1]; ip 50 mg/kg): 100%; Relative spleen weight ([1]; ip 50 mg/kg): 5.40%; FLV Survival rate ([1]; po 14.5 mg/kg): 100%; Relative spleen weight ([1]; po 14.5 mg/kg): 1.81%; FLV Survival rate ([1]; po 15.5 mg/kg): 100%; Relative spleen weight ([1]; po 15.5 mg/kg): 3.26%; FLV Survival rate ([1]; po 18.0 mg/kg): 100%; Relative spleen weight ([1]; po 18.0 mg/kg): 6.42%
CCOP(=O)(Cc1cccc(Br)c1)OCC [B, diethyl 3-bromobenzylphosphonate]	–	–	–	–	–	–	FLV Survival rate ([1]; ip 50 mg/kg): 80%; Relative spleen weight ([1]; ip 50 mg/kg): 6.60%
CCOP(=O)(Cc1ccccc1Br)OCC [C, diethyl 2-bromobenzylphosphonate]	8.0 days	1	8.0 days	4	4	7.0 days	FLV Survival rate ([1]; ip 50 mg/kg): 100%; Relative spleen weight ([1]; ip 50 mg/kg): 6.55%; FLV Survival rate ([1]; po 16.0 mg/kg): 100%; Relative spleen weight ([1]; po 16.0 mg/kg): 6.5%; FLV Survival rate ([1]; po 75.0 mg/kg): 100%; Relative spleen weight ([1]; po 75.0 mg/kg): 6.47%
CCOP(=O)(Cc1ccc(Br)cc1)OCC [D, diethyl 4-bromobenzylphosphonate]	8.0 days	4	–	5	5	–	Average survival time ([2]; sc 0.25 mg/kg): 7.0 days; Survivors ([2]; sc 0.25 mg/kg): 4; Average survival time ([2]; sc 2.5 mg/kg): 8.0 days; Survivors ([2]; sc 2.5 mg/kg): 2; Average survival time ([2]; sc 25 mg/kg): 7.0 days; Survivors ([2]; sc 25 mg/kg): 4
CCOP(=O)(Cc1ccccc1C)OCC [E, diethyl 2-methylbenzylphosphonate]	–	–	–	5	5	–	FLV Survival rate ([1]; ip 50 mg/kg): 90%; Relative spleen weight ([1]; ip 50 mg/kg): 4.83%; FLV Survival rate ([1]; po 16.5 mg/kg): 100%; Relative spleen weight ([1]; po 16.5 mg/kg): 6.94%; FLV Survival rate ([1]; po 77.5 mg/kg): 100%; Relative spleen weight ([1]; po 77.5 mg/kg): 8.54%; Average survival time ([2]; po 250 mg/kg): 2.3 days; Survivors ([2]; po 250 mg/kg): 2; Average survival time ([2]; sc 2.5 mg/kg): 7.0 days; Survivors ([2]; sc 2.5 mg/kg): 3; Average survival time ([2]; sc 25 mg/kg): 6.3 days; Survivors ([2]; sc 25 mg/kg): 2; toxic (printed in the Average survival time column) ([2]; sc 250 mg/kg): toxic; Survivors ([2]; sc 250 mg/kg): 0
CCOP(=O)(Cc1ccc(C)cc1)OCC [G, diethyl 4-methylbenzylphosphonate]	–	5	6.5 days	3	1	7.7 days	–
CCOP(=O)(Cc1ccccc1F)OCC [H, diethyl 2-fluorobenzylphosphonate]	5.5 days	3	8.0 days	4	3	8.5 days	–
CCOP(=O)(Cc1ccccc1Cl)OCC [I, diethyl 2-chlorobenzylphosphoante]	6.5 days	3	6.0 days	4	3	7.0 days	–
CCOP(=O)(Cc1cc(C)ccc1C)OCC [K, diethyl 2,5-dimethylbenzylphosphonate]	6.0 days	4	7.0 days	2	3	6.5 days	FLV Survival rate ([1]; po 15.5 mg/kg): 90%; Relative spleen weight ([1]; po 15.5 mg/kg): 9.02%
Cc1ccccc1CP(=O)(OC(C)C)OC(C)C [L, diisopropyl 2-methylbenzylphosphonate]	8.0 days	4	6.0 days	3	5	–	Average survival time ([2]; sc 0.25 mg/kg): 9.5 days; Survivors ([2]; sc 0.25 mg/kg): 3; Average survival time ([2]; sc 2.5 mg/kg): 6.8 days; Survivors ([2]; sc 2.5 mg/kg): 0; Average survival time ([2]; sc 25 mg/kg): 10.0 days; Survivors ([2]; sc 25 mg/kg): 4
Cc1ccccc1CP(=O)(OCCCl)OCCCl [N, di-(2-chloroethyl) 2-methylbenzylphosphonate]	8.0 days	4	8.0 days	3	3	6.5 days	–
CCOP(=O)(Cc1ccc(Cl)cc1)OCC [P, diethyl 4-chlorobenzylphosphonate]	8.5 days	3	7.0 days	4	3	6.5 days	–
CCOP(=O)(Cc1ccccc1I)OCC [R, diethyl 2-iodobenzylphosphonate]	–	–	–	–	–	–	Average survival time ([2]; sc 0.25 mg/kg): 9.0 days; Survivors ([2]; sc 0.25 mg/kg): 3; Average survival time ([2]; sc 2.5 mg/kg): 7.0 days; Survivors ([2]; sc 2.5 mg/kg): 4; Average survival time ([2]; sc 25 mg/kg): 6.8 days; Survivors ([2]; sc 25 mg/kg): 0
CC(C)OP(=O)(Cc1ccc(I)cc1)OC(C)C [T, diisopropyl 4-iodobenzylphosphonate]	–	–	–	–	–	–	Average survival time ([2]; sc 0.25 mg/kg): 7.0 days; Survivors ([2]; sc 0.25 mg/kg): 3; Average survival time ([2]; sc 2.5 mg/kg): 8.0 days; Survivors ([2]; sc 2.5 mg/kg): 4; Average survival time ([2]; sc 25 mg/kg): 7.0 days; Survivors ([2]; sc 25 mg/kg): 4
CCOP(=O)(OCC)C(C)c1ccccc1 (stereo not shown) [V]	7.0 days	4	9.0 days	3	3	7.5 days	–
CCOP(=O)(Cc1cccc(C(=O)OC)c1)OCC [X]	7.0 days	3	6.0 days	4	–	–	–
CCOC(=O)Cc1ccccc1CP(=O)(OCC)OCC [Y]	8.3 days	2	6.7 days	2	4	8.0 days	–
CCOP(=O)(Cc1ccc(OC)cc1)OCC [Z, Diethyl 4-methoxybenzylphosphonate]	7.0 days	3	7.0 days	4	1	7.3 days	–
NC12CC3CC(CC(C3)C1)C2 [amantadine, reference compound]	–	–	–	–	–	–	Survivors ([2]; po 80 mg/kg): 5; Survivors ([2]; sc 80 mg/kg): 5
Cc1ccc(C(=O)Nc2ccc(S(=O)(=O)O)c3cc(S(=O)(=O)O)cc(S(=O)(=O)O)c23)cc1NC(=O)c1cccc(NC(=O)Nc2cccc(C(=O)Nc3cc(C(=O)Nc4ccc(S(=O)(=O)O)c5cc(S(=O)(=O)O)cc(S(=O)(=O)O)c45)ccc3C)c2)c1 [suramin, Suramin, reference compound]	–	–	–	–	–	–	FLV Survival rate ([1]; ip 50 mg/kg, 50 mg/kg): 100% and 60%; Relative spleen weight ([1]; ip 50 mg/kg, 50 mg/kg): 6.70% and 6.17% and 4.12%

“And” between values parts separate entries of the source, which are not always exact repeats. Equal values may be shown once. Read-outs that look alike come from different tables or passages of the source.
